# In all, about 390,000 compounds went through this assay and about 1,400 (0.36%) were called active. The inconclusive results got no clear call from the source; some entries with a clear call stand among them for comparison. Calls come from the whole dose curve; as a rule, active = well fitted inhibition curve with a large enough effect; inconclusive = small, poorly fitted or top-dose-only effect; inactive = no such curve, though single readings can be large or run the other way. Potencies beside an inconclusive call are fits to weak or partial responses and may not hold up.
# Biological target: Flap endonuclease 1 (Homo sapiens) (UniProt P39748)
# Sequence of UniProt P39748 (P39748 whole entry, looked up): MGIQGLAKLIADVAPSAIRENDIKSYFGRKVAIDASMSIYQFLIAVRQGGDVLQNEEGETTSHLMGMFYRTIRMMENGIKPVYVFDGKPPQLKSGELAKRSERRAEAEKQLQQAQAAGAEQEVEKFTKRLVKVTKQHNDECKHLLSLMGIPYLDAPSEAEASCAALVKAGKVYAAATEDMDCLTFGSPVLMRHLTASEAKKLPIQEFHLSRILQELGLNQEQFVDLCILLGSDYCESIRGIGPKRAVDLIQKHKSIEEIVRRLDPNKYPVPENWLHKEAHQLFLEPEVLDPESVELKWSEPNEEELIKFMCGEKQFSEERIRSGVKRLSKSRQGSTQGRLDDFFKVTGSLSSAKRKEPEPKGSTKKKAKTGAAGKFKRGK
# Test: qHTS Assay for the Inhibitors of Human Flap endonuclease 1 (FEN1). Note: nearly all actives have a fitted effect of over 65% in size.
# Conditions: Recombinant FEN1 flap cleavage, fluorescence, 15 min; series mostly up to 114 µM; activity change, negative = inhibition: at the top concentration
# Outline: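 Concentration–response screening of FEN1 (10 nM): 15 min compound preincubation at room temperature, reaction started with 50 nM substrate and read at 0 and 15 min. Corrected, normalized data were fitted by a four-parameter Hill equation.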
# % is set by controls: 0 for no effect and ±100 for the full control effect; potency is the fitted concentration of half-maximal effect; tags give direction and shape of the fitted curve.
SMILES,Potency,"activity change, negative = inhibition"
COc1ccc(S(=O)(=O)N2CCN(c3nc(-c4cccs4)nc4ccccc34)CC2)cc1,inactive,–
O=C(/C=C/c1ccccc1)NCc1ccc2c(c1)OCO2,–,inactive: 2.73%
O=C(CCN1C(=O)S/C(=C\c2ccc(Cl)cc2)C1=O)Nc1ccc(C(=O)O)cc1,"inconclusive: 100 µM [inhibitor, single point]",–
COC(=O)c1c(C)oc2ccc(N(C(=O)Oc3ccccc3)S(=O)(=O)c3ccc(Cl)c([N+](=O)[O-])c3)cc12,–,inactive: 2.25%
CCCCOCCCNc1ncnc2c1[nH]c1ccccc12,"inconclusive: 56.2 µM [inhibitor, partial curve, poor fit]",–
O=C(NCCCN1CCOCC1)c1sc2cc([N+](=O)[O-])ccc2c1Cl,"inconclusive: 89.1 µM [inhibitor, partial curve, poor fit]",–
CC1(C)Cc2c(cnn2-c2ccc(F)cc2)C(NC(=O)C2=NNC(=O)CC2)C1 (stereo not drawn),"inconclusive: 89.1 µM [inhibitor, single point]",–
Cc1ccc(Cl)cc1Nc1nc(-c2cccnc2)cs1,"inconclusive: 50.1 µM [inhibitor, partial curve, poor fit]",–
Cc1ccc(Nc2nc(-c3sc(N)nc3C)cs2)cc1,–,inactive: 1.09%
CCN1CCN(CCNC(=O)c2ccc(/C=C3/Sc4ccccc4N(Cc4cccc(C)c4)C3=O)cc2)CC1,"inconclusive: 89.1 µM [inhibitor, single point]",–
Cc1ccc(SCc2nc(-c3ccncc3)no2)cc1,–,inactive: -5.51%
O=C(CC1C(=O)NCCN1Cc1ccc(-c2ccccc2)cc1)NCCOc1cccnc1 (stereo not drawn),–,inactive: 19%
CN(C)CCCNc1c2c(nc3ccccc13)CCC2,"inconclusive: 39.8 µM [inhibitor, partial curve]",–
O=C(O)c1cccc(-n2cccc2/C=C2/NC(=O)N(c3ccc(Cl)cc3)C2=O)c1,active: 20 µM,–
CCOC(=O)c1c(-c2ccc(Br)cc2)csc1NC(=O)c1ccc(C(C)(C)C)cc1,–,inactive: -15.1%
COc1ccc(C2CC(c3ccccc3)=NN2c2ccc(N)cc2)cc1 (stereo not drawn),"inconclusive: 89.1 µM [inhibitor, partial curve, poor fit]",–
Cc1ccc(C(=O)N2CC(=O)Nc3ccc(Br)cc3C2c2ccc(F)cc2)cc1C (stereo not drawn),–,inactive: -21%
CCCCCCCCCCCCCCCC[N+](C)(C)CC,–,inactive: 20.5%
C[C@H](CO)N1C[C@H](C)[C@@H](CN(C)Cc2ccc(Cl)c(Cl)c2)Oc2c(NC(=O)CCC(F)(F)F)cccc2C1=O,"inconclusive: 50.1 µM [inhibitor, partial curve, poor fit]",–
O=C(Oc1cc(=O)oc2c1c(=O)n1c3c(cccc23)CC1)c1ccc(F)cc1,–,inactive: -9.77%
COc1cc2nc(N3CCOCC3)nc(NC3CCN(C)CC3)c2cc1OC,"inconclusive: 25.1 µM [inhibitor, partial curve, poor fit]",–
C=CCn1c(SCc2ccc(Br)cc2F)nc2cc(C(=O)O)ccc2c1=O,–,inactive: -6.61%

SMILES,Potency,"activity change, negative = inhibition"
CC1CCCN(c2nc3ccccc3nc2C(C#N)S(=O)(=O)c2ccccc2)C1 (stereo not drawn),"inconclusive: 39.8 µM [inhibitor, partial curve, poor fit]",–
Cc1ccc(-n2cccc2/C=C2/C(=N)N3C(=NC2=O)SN=C3S(C)(=O)=O)cc1,"inconclusive: 79.4 µM [inhibitor, partial curve]",–
COc1cc(Cl)c(C)cc1N1C(=O)CN(Cc2ccccc2)C1=S,–,inactive: -8.25%
Cc1noc(-c2ccc(N3CCCCC3C)c([N+](=O)[O-])c2)n1 (stereo not drawn),–,inactive: 5.17%
CC[n+]1c(/C=C2\Sc3ccccc3N2C)ccc2cccc(C)c21,active: 12.6 µM,–
CN(C)CCCNc1ccc(-c2n[nH]c(=O)c3ccccc23)cc1[N+](=O)[O-],"inconclusive: 89.1 µM [inhibitor, single point]",–
CNc1ccccc1C(C)(C)c1cc(C)[nH]n1,"inconclusive: 89.1 µM [inhibitor, single point]",–
CCOC(=O)c1c(CN2CCOCC2)n(-c2ccccc2)c2ccc(O)cc12,"inconclusive: 79.4 µM [inhibitor, partial curve, poor fit]",–
Cc1ccc(CN(C)C2CCN(C)CC2)cc1,–,inactive: 7.95%
Cc1c(CCNC(=O)c2ccc(C(C)(C)C)cc2)sc2nc(-c3ccc(F)cc3)nn12,"inconclusive: 70.8 µM [inhibitor, single point]",–
Cc1cc(C)cc(N2C(=O)CSC23C(=O)N(Cc2c(F)cccc2Cl)c2ccccc23)c1 (stereo not drawn),–,inactive: 2.54%
CC1(C)OC(=O)C(=Cc2ccc(-c3ccc(Cl)c(C(=O)O)c3)o2)C(=O)O1,"inconclusive: 63.1 µM [inhibitor, partial curve, poor fit]",–
CCc1ccc(-c2cc(C(=O)N/N=C/c3c[nH]c4ccccc34)[nH]n2)cc1,"inconclusive: 89.1 µM [inhibitor, partial curve, poor fit]",–
O=C(N/N=C/c1c[nH]c2ccccc12)c1ccn(Cc2ccc(Cl)cc2)n1,"inconclusive: 50.1 µM [inhibitor, partial curve, poor fit]",–
COc1ccc(C=CC(=O)c2ccc(OC)c(OC)c2O)cc1OC,"inconclusive: 70.8 µM [inhibitor, partial curve, poor fit]",–
COc1cc2c(C#N)c(N3CCCC3)nc(N)c2c(N)n1,"inconclusive: 3.16 µM [inhibitor, partial curve, poor fit]",–
O=C(O)c1ccc(NC(=O)c2cc3c([nH]c2=O)CCCC3=O)cc1,"inconclusive: 100 µM [inhibitor, partial curve, poor fit]",–
COCCNC(=S)N(CCc1c(C)[nH]c2ccc(Cl)cc12)Cc1cccnc1,"inconclusive: 28.2 µM [inhibitor, single point]",–
Cc1sc2nc(CC(=O)NN)[nH]c(=O)c2c1C,–,inactive: -9.8%
CCOC(=O)[C@H]1[C@H]2COc3ccc(Cl)cc3[C@@H]2N2C(=O)CN(Cc3ccc(Cl)cc3)C(=O)[C@@]12C,"inconclusive: 44.7 µM [inhibitor, partial curve, poor fit]",–
COc1ccc(-c2ccc(=O)n(CC(=O)Nc3cc(OC)ccc3OC)n2)cc1,–,inactive: -11.3%
